Measured values published in the RNAGym collection of RNA variant scans (doi:10.1093/nar/gkz1192).
The source gives no read counts; variants with many changes may rest on few reads.

B1: CPEB3 Ribozyme (parent)
chain: UAACAGGGGGCCACAGCAGAAGCGUUCACGUCGCAGCCCCUGUCAGAUUCUGGUGAAUCUGCGAAUUCUGCUGUAUAUCUC

Variants of: B1
Assay: self-cleavage, relative activity (ratio to wild type); higher = more cleavage; in vitro, sequencing
Procedure, shortened: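 Libraries of CPEB3 self-cleaving ribozyme mutants came from rounds of error-prone PCR and carried barcodes, which DNA sequencing matched to variants. In vitro transcription used T7 RNA polymerase at 37°C for 5 hours, with a further 15 min in DNase I before EDTA stopped the reaction; the ribozymes cleaved during both steps. The RNA was reverse transcribed with template switching and sequenced on Illumina. Relative activity is the cleaved/total read fraction of a variant divided by that of the unmutated ribozyme, averaged over three batches with at least 5 reads.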
For C14A A56G A64U U74C, the self-cleavage was 0.66.
A13U A18G A21U G70C gave a self-cleavage of 0.13.
For A13U G19A U41C A47U A56U U78A, the self-cleavage was 0.07.
In the case of A13U U41C A47G A65G U78C, the self-cleavage is reported as 0.63.
A13G U43C U48C gave a self-cleavage of 0.06.
A13U U26C U74C gave a self-cleavage of 0.74.
With A13U A28G U43C U54C the self-cleavage was 0.36.
Work on A13U G24A A28C U31C U49C yielded a self-cleavage of 0.13.
A13U A20U A35G A45U U54A showed a self-cleavage of 0.25.
Variant A13U A57G C62A U66C has a self-cleavage of 0.28.
A13U G55U A56U gave a self-cleavage of 0.61.
With A13U C23G A28G C38U A57G A64U the self-cleavage was 0.03.
A13U A28G A35U U72C showed a self-cleavage of 0.18.
A13U U25C C29U U51C A56G A57G gave a self-cleavage of 0.1.
A13U G55A U60C gave a self-cleavage of 0.27.
A13U A28G G46A A47G U54C showed a self-cleavage of 0.05.
A13G U51A U76C showed a self-cleavage of 0.95.
C14A A28C A45G A47U showed a self-cleavage of 0.23.
Work on A13U A21G U49A C71A yielded a self-cleavage of 0.05.
With A13G U58C A64G U69A U72C U80C the self-cleavage was 0.16.
For A13U U43G A47G U72A, the self-cleavage was 0.08.
Work on A13U G33A U51C A56C yielded a self-cleavage of 0.18.
Work on A13G U26C G30A A35G yielded a self-cleavage of 0.06.
A13U A47G U66C U80C gave a self-cleavage of 0.47.
Variant A13G U26C A47G A64U has a self-cleavage of 0.08.
With A13U G24A C29U U58A A65G the self-cleavage was 0.04.
A13G U54A U69C gave a self-cleavage of 0.23.
A13G U26C A77G gave a self-cleavage of 0.42.
Work on A13U A35U U49C A64G yielded a self-cleavage of 0.06.
Variant A13U A35U U41A A56U A57G U58A U80C has a self-cleavage of 0.12.
With A13G U26A U31C U41A U51A U80C the self-cleavage was 0.1.
For A13U U31C U48C U58A, the self-cleavage was 0.06.
C14A A15C C40U U43C U48A U51A A57G gave a self-cleavage of 0.2.
A13U C32G U41C U49A gave a self-cleavage of 0.08.
For A13U G33A U49C, the self-cleavage was 0.32.
A13U A20U G30C U54A U72C A77G showed a self-cleavage of 0.04.
In the case of A13U A15G A35G C71U A77G, the self-cleavage is reported as 0.24.
A13G U49A U51A showed a self-cleavage of 0.28.
A13U A18G U26C A28G gave a self-cleavage of 0.03.
Work on A13U U26C U41C A47G U54C G61A yielded a self-cleavage of 0.13.
With A13G U41C U43C A57G U72A the self-cleavage was 0.11.
In the case of A13G U58A U72C, the self-cleavage is reported as 0.2.
A13U U25G U69A U72C U80C showed a self-cleavage of 0.08.
In the case of A13G U31C U49C U69A, the self-cleavage is reported as 0.11.
In the case of A13G U54A A77C U80C, the self-cleavage is reported as 0.72.
Variant C14A A18U A35G U43C U78C has a self-cleavage of 0.26.
Variant A13G U41C U76C A77G has a self-cleavage of 1.13.
A13U A21G U49C U72C showed a self-cleavage of 0.07.
A13U A21G A45G A47G gave a self-cleavage of 0.12.
In the case of A13U G22A U31C U78C, the self-cleavage is reported as 0.04.
A13U A15G A45U showed a self-cleavage of 0.25.
A13G U41C A75U gave a self-cleavage of 1.15.
Work on A13U A21G U48C U67C yielded a self-cleavage of 0.3.
A13U A28G U58A U78C U80C showed a self-cleavage of 0.14.
Work on A13U C14A U49C U67C U69A yielded a self-cleavage of 0.16.
C14A A15G A45U A65C U69C gave a self-cleavage of 0.13.
Work on A13U U31A G33U C62U yielded a self-cleavage of 0.07.
Work on A13U A18G U48G yielded a self-cleavage of 0.24.
Work on A13U A15G C23U U31A G33A U41A yielded a self-cleavage of 0.2.
With A13U U49A G73U the self-cleavage was 1.04.
A13U C14A U66C U67C U69A gave a self-cleavage of 0.13.
A13U A18G U41A gave a self-cleavage of 0.08.
For A13U A45U U58C U69A, the self-cleavage was 0.08.
Variant A13U G24A U43A U54C has a self-cleavage of 0.08.
With A13U A21G A47C U54C C81A the self-cleavage was 0.07.
For A13G U60C A65G A77G, the self-cleavage was 0.25.
A13U A18U U51C G70U U72C gave a self-cleavage of 0.24.
For A13U A18C C34G A64G, the self-cleavage was 0.22.
Work on A13G U49C A56G yielded a self-cleavage of 0.91.
A13U A15U A64G U66C gave a self-cleavage of 0.17.
In the case of A13U A45G U51A U60A U67A, the self-cleavage is reported as 0.41.
In the case of A13U A21G C37U, the self-cleavage is reported as 0.1.
Work on A13U U43C A56U U60A yielded a self-cleavage of 0.08.
A13U C40U G63A showed a self-cleavage of 0.79.
In the case of A13U A15G A28G U78C, the self-cleavage is reported as 0.78.
For A13U G33A A35U U43A, the self-cleavage was 0.04.
For A13U A15G U54C A56U U78A, the self-cleavage was 0.12.
With A13G U26A G61A U69A the self-cleavage was 0.08.
A13U C14U G33C C79U showed a self-cleavage of 0.09.
In the case of A13G U26A A45G U51C U69A, the self-cleavage is reported as 0.19.
A13U A20G C39A G52U U60C U66A gave a self-cleavage of 0.1.
A13U G30A U51A showed a self-cleavage of 0.15.
For A13U A18U U25A A35G C37A A56G G61A, the self-cleavage was 0.21.
In the case of A13U A45G A47G U54C U67C G70A A75C, the self-cleavage is reported as 0.08.
In the case of A13G U48C U74C, the self-cleavage is reported as 0.48.
A13U U31A U67A U74C U80C gave a self-cleavage of 0.2.
In the case of A13U A28G A45U U60A U66C, the self-cleavage is reported as 0.2.
For A13U U25C U51C, the self-cleavage was 0.08.
Variant A13U C34U A35G U60C has a self-cleavage of 0.15.
With A13U G46A A64G the self-cleavage was 0.11.
With A13U A18G G24A A57G the self-cleavage was 0.05.
Work on A13U G46U U58C U60A yielded a self-cleavage of 0.1.
A13U A18G G73A gave a self-cleavage of 1.05.
A13U G30C U41C U60A C62G showed a self-cleavage of 0.06.
For A13G U54C C81A, the self-cleavage was 0.99.
For A13U A35G A57G G63U, the self-cleavage was 1.28.
With A13G U31C U66C the self-cleavage was 0.43.
For A13U U54C U60C U72C U80A, the self-cleavage was 0.35.
A13U A15G A28G U48C A56G U66C gave a self-cleavage of 0.15.
For A13U C14U A56G U66C, the self-cleavage was 0.31.
A13U U25C C40U U72A U78C U80C showed a self-cleavage of 0.19.
Work on A13U A21U C37G G55U U58C U69A yielded a self-cleavage of 0.13.
In the case of A13U U51A U60C, the self-cleavage is reported as 0.6.
A13U G19U U51C gave a self-cleavage of 0.08.
Work on A13U C14A U25C U41A U67C U69A A77G yielded a self-cleavage of 0.1.
A13G U31C G73A showed a self-cleavage of 0.91.
With A13U A28U C29U G46A U67C U69C the self-cleavage was 0.06.
With A13U U48C A75U the self-cleavage was 0.77.
For A13U C17A U78C, the self-cleavage was 0.1.
A13U A35G U43A A47U U67G C81U showed a self-cleavage of 0.32.
With A13U U26A U31A U60C U78C the self-cleavage was 0.12.
A13U C23U U31A U51A gave a self-cleavage of 0.11.
Work on A13U U25A A75G yielded a self-cleavage of 0.19.
Work on A13U U25C C27A G30A U58C U78C yielded a self-cleavage of 0.06.
A13U U26A A75U U80C showed a self-cleavage of 1.21.
For A13G U66C C68U, the self-cleavage was 0.21.
With A13U U43C A45G U49C the self-cleavage was 0.11.
Work on A13U U25A U41A C71G A77U yielded a self-cleavage of 0.05.
For A13G U76C U80A, the self-cleavage was 1.21.
A13U A20G U25C U31A U76C U80A showed a self-cleavage of 0.09.
For A13G U31C U41A, the self-cleavage was 0.17.
In the case of A13U A45G A56U, the self-cleavage is reported as 0.47.
A13U A20G C38A U51C U72C showed a self-cleavage of 0.15.
Work on A13U C17A A18G U51C U69A yielded a self-cleavage of 0.1.
In the case of A13G U26C G42C A64G U66C, the self-cleavage is reported as 0.23.
In the case of A13U U60C U67C, the self-cleavage is reported as 0.2.
Variant A13G U26A G52C U67A has a self-cleavage of 0.29.
For A13G U60C U67C A77G U80C, the self-cleavage was 0.14.
With A13U A21G U41A A75G the self-cleavage was 0.15.
In the case of A13U A21G A45G, the self-cleavage is reported as 0.27.
A13G U26C U60C gave a self-cleavage of 0.1.
A13U U60C C62U A65G A77G U80C gave a self-cleavage of 0.28.
A13U U49C A64C showed a self-cleavage of 0.39.
A13G U31C U49C showed a self-cleavage of 0.16.
In the case of A13U C23G U48C A64U A65G U78C, the self-cleavage is reported as 0.06.
For A13U C14U C39U, the self-cleavage was 1.01.
With A13U A18G U25C U51C A56U the self-cleavage was 0.07.
C14A A35U U58C gave a self-cleavage of 0.51.
With A13U G30A A57U A65G the self-cleavage was 0.33.
With A13U U31A U49A U66A the self-cleavage was 0.2.
A13U U25C U26C U51C A64C showed a self-cleavage of 0.05.
With A13U C14A A15U C17A A65U C71U U78C the self-cleavage was 0.23.
Variant A13G U43C U49C U51C has a self-cleavage of 0.2.
For A13U A15G C37U A47G U51A U72G U76C, the self-cleavage was 0.32.
A13U A15G G33U U48C U51G U54A C62U showed a self-cleavage of 0.04.
In the case of A13U A18G A21U A35U U43C C62U A65U, the self-cleavage is reported as 0.04.
For A13U A18U A57G, the self-cleavage was 0.11.
For A13U U54C A56G, the self-cleavage was 0.72.
For A13U C17U A18G U25C U60C C68U U80A, the self-cleavage was 0.03.
With A13U A18U A35U C62G U67A the self-cleavage was 0.06.
A13U U26C A45C U74G gave a self-cleavage of 0.72.
A13U G22A U25C A28U U41C U49A gave a self-cleavage of 0.16.
For A13U A20C U26A G30U G63A, the self-cleavage was 0.04.
With A13G U41A U43G U48C the self-cleavage was 0.19.
Work on A13U A28U A56G A57G yielded a self-cleavage of 0.18.
A13U A28G U43G A47G gave a self-cleavage of 0.15.
A13U U54G U60C U78C showed a self-cleavage of 0.25.
Work on A13G U26A A28G A35U U67C yielded a self-cleavage of 0.16.
For A13U A21G U66C A75G U80C, the self-cleavage was 1.11.
Work on A13G U41C U48C U66C yielded a self-cleavage of 0.38.
A13G U26A C29U U60C gave a self-cleavage of 0.06.
Variant A13U U25G A57G U72A has a self-cleavage of 0.08.
Work on A13U A56U C62U U69A yielded a self-cleavage of 0.29.
Variant A13U A35G U41A has a self-cleavage of 0.42.
For A13U C23U A28G U43A C81A, the self-cleavage was 0.16.
For A13U U25C U26A A47G U67G U72A, the self-cleavage was 0.03.
A13U C17U G33A A56G U60C G73A gave a self-cleavage of 0.07.
